From the supplement of paper PMC12645437, “Orthogonal IMiD-Degron Pairs Induce Selective Protein Degradation in Cells” (ACS Chemical Biology, 2025)
Some of the results follow.

What follows are sequences tested against no compound (DMSO) (assay: log2 fold change of degron read counts, EGFP-low vs EGFP+ sorted cells; higher = lower degron-EGFP level without compound (poor expression or instability)). Conditions: compound: DMSO control; 18 h.
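Note: jurkat cells carrying a lentiviral library of mutant zinc finger degrons fused to EGFP plus mCherry, mCherry+ cells FACS sorted, degron abundance counted by next-generation sequencing.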

| Sequence | log2 fold change of degron read counts |
| --- | --- |
| LTCEICGFWCTQKGNLLRHIKL | 0.565 |
| LFCEICGFMCTQKGNLLRHIKL | 0.714 |
| FSCEQCGAYFTQKGNLLRHIKL | -0.748 |
| FLCNQCGREFTQKGNLLRHIKL | -1.7 |
| FFCNVCGAFFTQKGNLLRHIKL | 0.964 |
| LICNQCGFTCTQKGNLLRHIKL | -0.029 |
| FSCEICGRIFTQKGNLLRHIKL | -0.367 |
| LKCEICGFRCTQKGNLLRHIKL | 0.0214 |
| FLCNVCGAGFTQKGNLLRHIKL | -1.11 |
| FFCEICGHGFTQKGNLLRHIKL | -0.908 |
| FLCNVCGASFTQKGNLLRHIKL | -0.221 |
| FHCDVCGAEFTQKGNLLRHIKL | -2.4 |
| LWCNQCGFCCTQKGNLLRHIKL | 2.02 |
| FECPVCGAPFTQKGNLLRHIKL | -0.304 |
